# In the supplement of paper PMC12217912:
# Some of the results follow. The full chains were built here from the parent and the listed change. Values near 0.05 are background.
# B1: TEV protease; numbered along this chain (parent)
# chain: MGESLFKGPRDYNPISSSICHLTNESDGHTTSLYGIGFGPFIITNKHLFRRNNGTLVVQSLHGVFKVKDTTTLQQHLVDGRDMIIIRMPKDFPPFPQKLKFREPQREERICLVTTNFQTKSMSSMVSDTSCTFPSGDGIFWKHWIQTKDGQCGSPLVSTRDGFIVGIHSASNFTNTNNYFTSVPKNFMELLTNQEAQQWVSGWRLNADSVLWGGHKVFMVKPEEPFQPVKEATQL
# Variants of: B1
# Test: raw area under fraction-flipped curve 0-4 h after induction (AUC4h, not background-subtracted), DNA-recorder readout of cleavage of the substrate (dimensionless); higher = more cleavage of the substrate by the protease variant
# Conditions: temperature: 34 °C; time window: 0-4 h after rhamnose induction
# Experimental: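 In vivo DNA recorder in E. coli TOP10(DE3) ΔrhaA at 34 °C. Each TEVp single-site mutant (parent TEVp 0) is paired with a single-site variant of the 7-mer TEVs (canonical ENLYFQ|S). The substrate sits between flexible linkers in a Bxb1-sfGFP-TEVs-SsrA fusion, so cleavage stabilises Bxb1 and speeds flipping of a recombination array, read by NGS. The value is the raw area under the fraction-flipped curve over 0-4 h after rhamnose induction (AUC4h), with ≥20 reads per time point. It is not background-subtracted; inactive controls average about 0.047.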
# 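Note: Bxb1 expression induced with 0.2% (w/v) L-rhamnose at OD600 near 0.5, cultures sampled hourly, flipped fraction per protease–substrate barcode pair counted by paired-end Illumina sequencing.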
Variant,area with substrate ENAYFQS,area with substrate ENCYFQS,area with substrate ENDYFQS,area with substrate ENEYFQS,area with substrate ENGYFQS,area with substrate ENHYFQS,area with substrate ENNYFQS,area with substrate ENPYFQS,area with substrate ENSYFQS,area with substrate ENVYFQS,area with substrate ENWYFQS,area with substrate ENYYFQS,area with substrate ENFYFQS,area with substrate ENIYFQS,area with substrate ENKYFQS,area with substrate ENQYFQS,area with substrate ENRYFQS,area with substrate ENTYFQS,area with substrate ENMYFQS
T72M,0.0512,0.064,0.0599,0.0712,0.0605,0.0572,0.0502,0.0636,0.108,0.0731,0.0573,0.0545,,,,,,,
T72W,0.0636,0.0645,0.0594,0.0584,,,0.0528,0.0524,,,,,0.0549,0.0617,0.0519,0.0485,0.0624,0.0546,
L73A,0.0609,,0.0493,0.0481,,,,,,,0.0478,,,,,,0.0655,,0.0421
L73M,0.057,0.0482,0.0677,0.0639,0.0699,0.0656,0.0591,,0.0572,0.077,,,0.0464,0.0731,,0.0619,0.0364,0.0664,
Q74L,0.0554,,,,0.0629,0.061,0.056,,,0.0748,,,,,,0.0551,0.0484,0.0698,
Q74N,0.0608,,,0.0606,,,,,,,,,0.0568,0.134,0.093,0.0578,,,0.0958
Q75G,0.0474,,,0.0598,0.0658,0.075,0.0521,0.0525,0.0503,0.0519,,,0.0555,0.0934,,0.0606,0.0541,,0.0682
Q75S,0.0656,0.0538,,0.0565,,,,,0.0766,0.0636,,0.0543,0.0577,,0.0556,0.0346,,0.0646,0.0915
H76Y,0.0456,0.0629,0.0753,0.067,,0.0588,,0.0618,0.0595,0.0681,,0.0592,0.0563,0.0824,,0.0576,,0.0588,0.0741
V78H,0.0435,0.0147,0.0508,,,,0.0398,0.0662,0.0725,0.0435,,,0.0554,0.0643,0.0582,0.0493,0.0644,0.0179,
D79R,0.0562,,0.0584,0.0674,0.0613,0.062,,0.0532,0.053,0.0794,,0.0432,0.0441,,0.0535,0.0627,,,
R81Q,0.0479,,,,,,0.0719,0.0637,,0.0633,,,,0.0792,0.0691,0.0602,,,
D82C,0.0661,0.0502,0.0457,0.0335,0.0703,0.0485,,,0.0636,0.0489,,0.0578,0.0591,,,,,,0.0626
D82T,0.0477,0.0766,0.0615,0.056,0.0825,0.0609,0.046,0.0549,0.0585,0.0547,0.0644,0.0443,0.0471,0.0492,0.0609,0.0486,0.0508,0.0708,0.0482
M83H,0.076,0.0504,0.0477,0.056,0.0603,0.0586,,,,0.062,,0.0601,0.0524,,,0.067,0.0497,0.0483,
